# According to PubChem BioAssay (Tox21):
# Several values for one entry are separate records, joined by “and”; a condition that tells them apart may be missing. Identical values can stand only once. Inconclusive means that the source gave no clear call. Such entries were picked first, then a sample of the others. A call without a number means that no potency is given here. For some assays here: Potencies beside an inconclusive call are fits to weak or partial responses and may not hold up. Activity calls are given as the source filed them. Unless noted, calls come from the whole dose curve; as a rule, active = well fitted cell-killing curve with a large enough effect in the repeat runs; inconclusive = weak or mixed curves, or effect the other way; inactive = no such curve, though single readings can be large or run the other way.
# Experiments:
# [1] = target: Peroxisome proliferator-activated receptor delta (Homo sapiens) (UniProt Q03181); assay: qHTS assay to identify small molecule antagonists of the peroxisome proliferator-activated receptor delta (PPARd) signaling pathway (AID 743215; active = well fitted inhibition curve with a large enough effect in the signal ratio in the repeat runs, not every such curve was filed as active; inconclusive = weak or mixed curves, or effect the other way; inactive = no such curve, though single readings can be large or run the other way; the % refers to the signal ratio;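 note: cells stimulated with agonist L165041 at 300 nM final during compound exposure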); settings: HEK293H PPARd-UAS-bla, beta-lactamase FRET ratio, antagonist, 17 h; ratio activity, negative = inhibition: at 62 µM (top of the series) unless noted
# UniProt Q03181, sequence (Q03181 whole entry, looked up): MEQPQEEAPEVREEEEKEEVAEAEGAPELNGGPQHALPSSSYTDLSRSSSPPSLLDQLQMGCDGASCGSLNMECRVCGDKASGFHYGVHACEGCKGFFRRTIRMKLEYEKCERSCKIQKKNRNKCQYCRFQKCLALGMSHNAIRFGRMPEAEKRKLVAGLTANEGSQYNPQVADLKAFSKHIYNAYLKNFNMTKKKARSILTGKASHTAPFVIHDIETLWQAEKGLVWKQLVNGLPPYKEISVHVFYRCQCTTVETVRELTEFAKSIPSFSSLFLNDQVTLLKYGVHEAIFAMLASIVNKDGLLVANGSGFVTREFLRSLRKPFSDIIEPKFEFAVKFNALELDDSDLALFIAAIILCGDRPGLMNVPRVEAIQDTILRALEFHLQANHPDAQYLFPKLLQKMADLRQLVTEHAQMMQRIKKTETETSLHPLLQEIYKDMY
# How it was run: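 HEK293H UAS-bla, PPARd; agonist L165041 300 nM final with cpd in DMSO; 37 C 17 h; FRET substrate, RT 2 h; fluorescence intensity.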
# [2] = target: Vitamin D3 receptor (Homo sapiens) (UniProt P11473); assay: qHTS assay to identify small molecule antagonists of the vitamin D receptor (VDR) signaling pathway (AID 743223; active = well fitted inhibition curve with a large enough effect in the signal ratio in the repeat runs, not every such curve was filed as active; inconclusive = weak or mixed curves, or effect the other way; inactive = no such curve, though single readings can be large or run the other way; the % refers to the signal ratio; note: potency is the fitted concentration of half-maximal effect); settings: VDR-UAS-bla HEK293T, beta-lactamase FRET ratio, 16 h; activity change, negative = inhibition: at 61 µM (top of the series) unless noted
# UniProt P11473, sequence (P11473 whole entry, looked up): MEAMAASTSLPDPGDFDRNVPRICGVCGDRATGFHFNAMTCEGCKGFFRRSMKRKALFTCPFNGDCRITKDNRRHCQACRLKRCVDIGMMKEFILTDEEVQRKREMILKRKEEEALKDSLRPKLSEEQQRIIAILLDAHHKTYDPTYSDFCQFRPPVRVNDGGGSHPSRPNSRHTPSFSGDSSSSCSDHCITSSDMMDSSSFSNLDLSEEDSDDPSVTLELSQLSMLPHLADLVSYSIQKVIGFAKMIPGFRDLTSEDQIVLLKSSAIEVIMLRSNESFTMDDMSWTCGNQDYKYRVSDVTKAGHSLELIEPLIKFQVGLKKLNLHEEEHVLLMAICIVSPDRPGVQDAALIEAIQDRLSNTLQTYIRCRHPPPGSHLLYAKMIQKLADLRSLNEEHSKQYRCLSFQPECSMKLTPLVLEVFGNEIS
# How it was run: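 Inhibition of agonist-driven VDR signalling is scored in VDR-bla cells: 3 nM final 1alpha,25-dihydroxyvitamin D3 plus compound, 16 h at 37C, then beta-lactamase detection by FRET substrate fluorescence after 2 h.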
# [3] = qHTS assay to identify small molecule agonists of the endoplasmic reticulum stress response signaling pathway (AID 1159516; active = well fitted activation curve with a large enough effect in the signal ratio in the repeat runs, not every such curve was filed as active; inconclusive = weak or mixed curves, or effect the other way; the % refers to the signal ratio; note: potency is the fitted concentration of half-maximal effect); settings: ESRE-bla HeLa, ER stress beta-lactamase reporter, 5 h; activation: at 61 µM (top of the series) unless noted
# How it was run: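 An ESRE-bla HeLa cell assay: compounds were pin-transferred from DMSO onto overnight-plated cells and left 5 hr at 37 C. Substrate was then loaded for 2 hr at room temperature before reading fluorescence at 460 nm and 530 nm.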
# [4] = qHTS assay to identify small molecule agonists of the farnesoid-X-receptor (FXR) signaling pathway - cell viability counter screen (AID 743218); settings: FXR-bla HEK293T viability, CellTiter-Glo luminescence, 16 h; viability change, negative = cytotoxic: at 62.6 µM (top of the series) unless noted; note: nearly all actives have a fitted effect of over 45% in size; note: potency is the fitted concentration of half-maximal effect
# How it was run: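 Parallel cytotoxicity test: compound-treated (16 h, 37 C) HEK 293T FXR-bla reporter cells were lysed with CellTiter-Glo and luminescence recorded.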
# [5] = qHTS assay to identify small molecule antagonists of the vitamin D receptor (VDR) signaling pathway - cell viability counter screen (AID 743225); settings: VDR-bla HEK293T viability, CellTiter-Glo luminescence, 16 h; viability change, negative = cytotoxic: at 61 µM (top of the series) unless noted; note: nearly all actives have a fitted effect of over 50% in size; note: potency is the fitted concentration of half-maximal effect
# How it was run: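 Compounds were pinned onto VDR-bla HEK 293T cells together with 1-alpha,25-dihydroxyvitamin D3 at 3 nM final. After 16 h at 37C and 5% CO2 plus the reporter readout, cell viability was measured by CellTiter-Glo luminescence (30 min, room temperature).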
# [6] = target: Vitamin D3 receptor (Homo sapiens) (UniProt P11473); assay: qHTS assay to identify small molecule agonists of the vitamin D receptor (VDR) signaling pathway (AID 743222; calls by dose curve); settings: HEK293T VDR-UAS-bla, beta-lactamase FRET ratio, 16 h; activation: at 63.5 µM (top of the series) unless noted
# How it was run: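 In VDR-bla cells, compound-induced beta-lactamase expression is quantified by FRET substrate fluorescence. Treatment lasts 16 h at 37C; substrate develops 2 h at room temperature.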
# [7] = target: Bile acid receptor (Homo sapiens) (UniProt Q96RI1); assay: qHTS assay to identify small molecule antagonists of the farnesoid-X-receptor (FXR) signaling pathway (AID 743217; active = well fitted inhibition curve with a large enough effect in the signal ratio in the repeat runs, not every such curve was filed as active; inconclusive = weak or mixed curves, or effect the other way; inactive = no such curve, though single readings can be large or run the other way; the % refers to the signal ratio); settings: HEK293T FXR-UAS-bla, beta-lactamase ratio, CDCA-stimulated, 16 h; activity change, negative = inhibition: at 62.6 µM (top of the series) unless noted
# UniProt Q96RI1, sequence (Q96RI1 whole entry, looked up): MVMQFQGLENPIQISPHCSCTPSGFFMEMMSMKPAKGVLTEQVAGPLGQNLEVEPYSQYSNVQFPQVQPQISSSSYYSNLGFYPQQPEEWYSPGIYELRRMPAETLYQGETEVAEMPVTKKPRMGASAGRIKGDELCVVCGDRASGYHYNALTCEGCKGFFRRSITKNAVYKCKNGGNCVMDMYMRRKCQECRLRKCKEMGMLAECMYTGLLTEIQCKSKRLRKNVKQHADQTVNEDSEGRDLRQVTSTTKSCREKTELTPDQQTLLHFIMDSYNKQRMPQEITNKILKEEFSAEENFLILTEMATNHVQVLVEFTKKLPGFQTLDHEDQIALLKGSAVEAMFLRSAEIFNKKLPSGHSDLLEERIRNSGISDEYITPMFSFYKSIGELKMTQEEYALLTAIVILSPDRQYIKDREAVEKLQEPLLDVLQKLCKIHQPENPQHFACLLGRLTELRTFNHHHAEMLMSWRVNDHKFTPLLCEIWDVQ
# How it was run: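 GeneBLAzer FXR-UAS-bla HEK 293T, CDCA-stimulated (50 uM final). Compound treatment 16 h, 37 °C. Detection: beta-lactamase cleavage of B/G FRET substrate, fluorescence.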
# [8] = qHTS assay to identify small molecule agonists of the endoplasmic reticulum stress response signaling pathway - cell viability counter screen (AID 1159517; calls by dose curve; note: nearly all actives have a fitted effect of over 50% in size; note: potency is the fitted concentration of half-maximal effect;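 for activity change, negative = cytotoxicity: HeLa cells carrying an ER stress response element beta-lactamase reporter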)
# How it was run: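 Luminescence readout: CellTiter-Glo, 30 min RT, same wells as the ESRE-bla reporter read. HeLa ESRE-bla, 1,500 cells/well, o/n 37 C; cpd 5 hr 37 C/5% CO2.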
# [9] = qHTS assay to identify small molecule agonists of the vitamin D receptor (VDR) signaling pathway - cell viability counter screen (AID 743224); settings: VDR-bla HEK293T viability, CellTiter-Glo luminescence, 16 h; activity change, negative = cytotoxicity: at 62.6 µM (top of the series); note: nearly all actives have a fitted effect of over 50% in size; note: potency is the fitted concentration of half-maximal effect
# How it was run: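 Plated VDR-bla cells (4 h, 37C) received compound, incubated 16 h, then LiveBLAzer substrate 2 h RT; CellTiter-Glo added afterwards, luminescence read at 30 min.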
# Tags give direction and shape of the fitted curve or compound fluorescence and quenching.
structure (smiles),measurement,setting,value
CC(C)(C)C1CCC(O)CC1 (configuration not stated),"ratio activity, negative = inhibition",[1],inconclusive: -5.75%
same,"activity change, negative = inhibition",[2],inconclusive: 53.2% [fluorescent]
same,activation,[3],inconclusive: 0%
Nc1ccncc1N,Potency,[4],inactive
same,Potency,[3],inactive
O=[N+]([O-])C(CO)(CO)CO,Potency,[1],inactive
same,Potency,[4],inactive
same,Potency,[2],"inactive and inconclusive: 17.4 µM [fluorescent, partial curve, poor fit]"
same,Potency,[5],"inconclusive: 12300 nM [cytotoxic, single point]"
same,Potency,[3],"inconclusive: 61600 nM [activator, single point]"
CCOC(=O)CCC(=O)OCC,activation,[6],inconclusive: -32.1%
same,Potency,[3],inactive
CCN(CC#N)c1cccc(C)c1,Potency,[1],inactive
same,Potency,[3],inactive
CCCNCCC,Potency,[7],inactive
same,"activity change, negative = inhibition",[2],inconclusive: 11% [at 78.8 µM]
same,Potency,[3],"inconclusive: 310 nM [rising, partial curve, poor fit]"
CC(C)OC(=O)c1ccccc1C(=O)OC(C)C,Potency,[4],"inconclusive: 49000 nM [cytotoxic, partial curve, poor fit]"
same,Potency,[5],inactive
same,activation,[3],inconclusive: 0.0551%
CCOC(=O)C(C)(C)Oc1ccc(Cl)cc1,"ratio activity, negative = inhibition",[1],inconclusive: 0.587%
same,Potency,[7],inactive
same,Potency,[5],inactive
same,Potency,[3],"inconclusive: 7 nM [rising, full curve, poor fit]"
CC(C)(O)CCc1ccccc1,Potency,[1],inactive
same,"activity change, negative = inhibition",[2],inconclusive: 1.39%
same,Potency,[3],"inconclusive: 38.9 nM [rising, full curve, poor fit]"
C#Cc1ccc(-c2ccccc2F)cc1,Potency,[7],inactive
same,Potency,[3],"inconclusive: 2680 nM [falling, full curve, poor fit]"
CN(C)C(=O)COC(=O)Cc1ccc(OC(=O)c2ccc(N=C(N)N)cc2)cc1,Potency,[8],"inconclusive: 535 nM [cytotoxic, single point]"
Nc1cc([N+](=O)[O-])ccc1C(=O)O,Potency,[2],inactive
same,Potency,[3],"inconclusive: 6.9 nM [rising, full curve, poor fit]"
CCCCCCCCCCCCCCCCCl,Potency,[2],inactive
same,Potency,[3],inactive
Cc1cc(CCC(=O)OCCOCCOCCOC(=O)CCc2cc(C)c(O)c(C(C)(C)C)c2)cc(C(C)(C)C)c1O,Potency,[9],"inconclusive: 42600 nM [cytotoxic, single point]"
same,Potency,[5],"inconclusive: 135 nM [cytotoxic, full curve, poor fit]"
same,activation,[3],inconclusive: 10.6%
CSCC[C@H](NC(=O)[C@H](Cc1c[nH]c2ccccc12)NC(=O)CCNC(=O)OC(C)(C)C)C(=O)N[C@@H](CC(=O)O)C(=O)N[C@@H](Cc1ccccc1)C(N)=O,Potency,[8],"inconclusive: 239 nM [cytotoxic, single point]"
CC(N)C12CC3CC(CC(C3)C1)C2 (configuration not stated),"activity change, negative = inhibition",[2],inconclusive: -2.9%
same,Potency,[9],inactive
same,Potency,[3],inactive
CC1=C(C(=O)O)N2C(=O)[C@@H](NC(=O)[C@H](N)c3ccc(O)cc3)[C@H]2SC1,Potency,[2],inactive
same,Potency,[5],inactive
same,Potency,[3],inactive
CCCCC/C=C/CC1CC(=O)OC1=O (configuration not stated),Potency,[2],inactive
same,Potency,[3],inactive
CCCCCC1Nc2cc(C(F)(F)F)c(S(N)(=O)=O)cc2S(=O)(=O)N1 (configuration not stated),Potency,[8],inactive
O=C1CCCCCCCCCCCCCCO1,"activity change, negative = inhibition",[2],inconclusive: 42.5%
same,Potency,[3],inactive
C=CCCCC,activation,[6],inconclusive: 7.82% [at 81.1 µM]
same,"activity change, negative = inhibition",[2],inconclusive: 3.62% [at 78.8 µM]
same,Potency,[3],inactive
Cc1ccc(C(=O)O)cc1,Potency,[8],"inconclusive: 12600 nM [rising, partial curve, poor fit]"
COc1cc(NS(=O)(=O)c2ccc(N)cc2)nc(C)n1,Potency,[5],inactive
same,Potency,[3],"inconclusive: 3380 nM [falling, partial curve, poor fit]"
C=CCCCCCCCCCCCC,Potency,[8],inactive
Cc1ccccc1C(=O)O,Potency,[2],inactive
same,Potency,[3],inactive
O=C(O)Cc1ccc(Cl)cc1Cl,Potency,[2],inactive
same,Potency,[3],inactive
C[C@@H]1NC(=O)[C@@H](N)CNC(=O)[C@H](C2CCNC(N)=N2)NC(=O)/C(=C/NC(N)=O)NC(=O)[C@H](CNC(=O)C[C@@H](N)CCCN)NC1=O (some centres not stated),"activity change, negative = inhibition",[2],inactive: 8.64% [at 0.628 µM]
same,activation,[3],inactive: 0.164% [at 0.628 µM]
